Reference: the supplement of paper PMC10126150
Values marked as one replicate rest on one cluster of the flow cell; about a third of the high ones do not repeat.

System: ATP
Assay: switch fluorescence ratio, 500 uM ATP over buffer (Cy3 cluster intensity, sum of 5 cycles each) (fold (ratio)); higher = stronger signal-on switching upon ATP binding; sequences stand for … in TCGTCGGCAGCGTCAGATGTGTATAAGAGACAGTTTTTTTTTTTTTTTTTTTTTTTTT…TC
Conditions: aptamer strand: ATP DNA aptamer (quencher-CACCTGGGGGAGTATTGCGGAGGAAGG + anchor), 100 nM annealed; ATP concentration: 500 uM; one replicate
Procedure, shortened: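 Five buffer/ATP imaging cycles were run on Cy3-labelled switching-strand clusters on a modified Illumina MiSeq flow-cell, with NaOH stripping and re-annealing between cycles. In each cycle, clusters annealed to 100 nM quencher-labelled ATP aptamer were imaged in selection buffer, then after 15 min with 500 uM ATP at 22 °C. Per cluster, the fluorescence ratio is summed target-cycle over summed buffer-cycle Cy3 intensity, averaged per switch-domain sequence. Only clusters within 100-1000 RFU were kept.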
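Further: ATP exposure 15 min at 22 °C before imaging.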

Sequence	switch fluorescence ratio
GGTTTGTCTG	0.912
GTGCGTAGGC	0.963
TCATAGGAAA	0.987
ATTTGGAGTG	1.01
GGGACCTAG	0.963
TATATACCCA	1
CGCATAACTA	2.02
CGTTATCTGT	1.03
GGAACGAGTG	0.995
CTGGGGCCAG	1.01
TCCCACATT	1.02
CGTTGTAGG	1.12
GATTAATGGT	1.03
GGTCCGCTCT	1.02
TCAGATTCCG	0.995
ACATTGCATT	0.987
CAACATAACT	1.08
CATCTATGAA	1.01
ATTAGAAGCG	1.02
CGAGCTTACA	1.25
TAACACTAAT	1.04
GACCTGATGA	1.01
ATGATAGACT	0.97
TTTTACCCGA	1.01
GGTACTAGAG	1.03
ATGTGAAGCG	0.983

Sequence	switch fluorescence ratio
ATTGTTGCT	0.98
TGACAACTGG	1.01
AGCGGGAGAC	0.994
CACCACCCC	1.22
ACGATCGCTA	2.85
AAGCTTAGTA	0.979
GCCGAATACC	1.47
TGTATGGGTA	0.995
GGTCCCGGGT	1.04
TCTTTAGCAC	1.18
CGCGAGTTCA	0.992
GTGTTCTCTT	0.943
TCCTTGAGGC	1.01
ACACATCGGG	0.995
CAGAGGGGAT	0.949
GGATTCGGTC	1.03
ACTCTTGGGG	0.992
GATATTGTCG	1.08
ACTTTTTGCG	0.987
TTACTCTTC	1.02
GGCGGGACTC	1.21
GGACTATCGT	0.954
TATTGAGTCG	1.09
ATCATTGTGA	1.03
TATCCCTAGG	1.29
ATCTTATGGT	0.96

Sequence	switch fluorescence ratio
ATAGAGAATA	0.978
GAGCATTGCA	1.06
ATCGGGCTGG	0.995
CAATTGTCAA	1
AGGTACCATA	1.08
AAAATGTTGC	0.987
CTCTTGCAGG	1.17
GATTTTCGTG	0.964
GAGTTTGGAG	0.99
GTCTTAGTGT	0.967
TATAATCAGT	1.03
TTCACTTTGT	0.95
AGGGACACCC	0.975
GTCCGGATTC	0.996
CCAGTTGTC	1.04
ATTAACG	1.05
GAACGGTTTT	1.03
CTATGAAATG	1.05
ACTTCAAGCT	1.08
GTAAAAAGTA	0.992
CGGAAATAGA	0.984
GGTACACTGC	0.97
TGCGCGTGGA	0.969
TAGCGCTAGT	0.983
TACGTCGAGT	0.994
GTGAGGTCTC	0.952

Sequence	switch fluorescence ratio
CGCAAAAGA	1.16
TTAGGAGAT	1.01
TCAAGTGCTG	0.892
TCGTTGTATG	0.996
AAAGCTCCTT	1.03
AGCATTAAGG	0.953
GATCGACACT	1.02
TGGAAACTTT	1.14
TAGTTCTTCA	0.959
CTTTTGTGGC	1.05
CTGGAGAAAT	3.66
TGTTGGCC	0.985
GCTCTCGACG	1.01
GGAATTATTC	1.03
CGGTTATGCT	1.04
CGGAGTCACT	1.11
GGGGTGCTGA	1
TGATATTTG	0.968
TTGACTTGTA	0.991
CGACCAAGAT	1.95
TCGACTCATG	0.977
CATTTGGTTA	0.949
ACCACTGCAG	1.02
GACAGCCTTG	1
CAGTGGGTAG	1.01
ATTCGAATTC	0.999

Sequence	switch fluorescence ratio
CCCTAATGGG	0.979
CCAATGAAGA	0.971
TCTGTTATGG	1
TTATTAGGTG	1.2
ACAGAGTTAA	1.03
AAGGTGTGGA	1.03
TATGCTTGTC	1.01
CTAACCTCCA	1.12
TCATGCCGGT	0.912
TCTCGCCCGT	0.97
ATATAGTGGT	1.01
TATGCCCATA	1.02
CAGGTTAAAG	0.971
ACTCTCGTT	1.04
TCGAGCCTGT	1
AAAAGATCTC	1.01
GATCATGTTC	1
TTGCATTGTT	0.982
CTTCAGGATG	1.01
GTAATGGAAA	1.02
AGCCAAATGA	1.03
CTGACAGTA	1.07
CTGACTAGTG	0.999
TAAGCAAGCG	1.59
CCGCAACGGA	2.12
TTGGAGACCG	1.04

Sequence	switch fluorescence ratio
ACGCCCGCTT	1.29
TCAGTAAATC	1.03
ACTTAGTAAG	0.998
GAAATTCAGG	0.98
TCACCGACTG	1.1
TCCTGATCAT	1.04
ATGCTTCGAC	1.04
GACCCAGGTC	1.13
TAGAACAGCG	0.974
CGCAGGTCGT	1.06
TAAATATCTT	0.983
TCCCATAATT	0.999
GTGTCGTGTG	1.04
CCAGGA	1.03
AAGGAGGGAA	0.987
GCGCGAGGAA	1.02
CGTTTTGGCC	0.985
TGATCGACCT	1.22
GGAGTTCGAC	0.951
TTTTGCAGC	1.09
TTTTCTTACA	1.02
GCGGCCAAT	1.03
AACGGGTA	0.968
TGCGCGAGGT	1
GGCCCTTTGA	0.973
GGGCAAAACG	0.986

Sequence	switch fluorescence ratio
GGTCACGGAT	0.903
CTGCTTGGGC	0.978
GCGGTGGCGT	0.94
GCAGATATTC	1.04
AATACGCCCC	1.28
TAGGGGACTC	1.44
CCTAATTTAT	0.998
TGGCACTACA	1.05
CGCTGACACG	1.06
CTTTTTTATA	0.98
CCTCTAAGAT	3.29
CTTTAACTTA	1
TAATATGAAT	0.99
CCTCCAGTTG	4.11
ATTGATTCGC	1.01
CGCCTCTATA	1.05
CTTGGACGAA	0.952
AAGAGTAACA	1.02
CGTTTATATC	1.02
ACCGATTTAG	1.02
ACATCCTGAT	1.02
TTGAAACCTT	1.11
ATGGAAAGAT	0.994
GGGTACCGGC	1.03
AATATTTGGG	1
TTAGGCCTAA	0.966

Sequence	switch fluorescence ratio
ATGTATAGGT	1.03
ACGGTGAGA	0.995
GTGGAAGAGA	0.96
GGGAGCCAGA	0.992
TCAAAGGCCC	1
GCAGCAGGT	1.14
CGTTTGGTTA	1.01
TACGGTGAAA	0.996
TATGGAATAG	1.04
CGGGACTGGT	0.976
GCTAGTTCTC	0.969
AGTTTCTCCC	1.13
CGCGGAAATG	1
TCGACATTTT	1.02
TCCCGGGTTG	2.59
GCGGTATAAA	1.01
ACTGATGGCT	1.05
GGCCGGTCGT	0.979
TTAGCGCTGT	1.03
